Measured values as given in the BET-seq Pho4 binding data (Le et al. 2018).
Some of the results follow. The energies were worked out here from pooled read counts, against the library average; single values are noisy.

Biological target: T1, Pho4 (S. cerevisiae) (UniProt P07270)
T1 sequence: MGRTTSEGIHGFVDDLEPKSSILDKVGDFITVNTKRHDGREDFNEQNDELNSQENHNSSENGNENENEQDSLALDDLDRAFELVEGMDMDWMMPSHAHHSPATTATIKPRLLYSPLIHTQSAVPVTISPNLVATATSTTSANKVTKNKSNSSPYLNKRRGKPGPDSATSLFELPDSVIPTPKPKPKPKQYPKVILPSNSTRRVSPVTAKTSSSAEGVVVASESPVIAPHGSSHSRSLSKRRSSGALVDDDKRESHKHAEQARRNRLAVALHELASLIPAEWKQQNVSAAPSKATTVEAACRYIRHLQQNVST
Experiment: relative binding free energy (BET-seq); higher = weaker binding
Conditions: reference: library average

Sequence | relative binding free energy [kcal/mol]
TGGTCCACGTGTTGGA | 0.15
GATTCCACGTGGGGTT | 0.02
GGGGTCACGTGTGGCC | 0.25
TAGATCACGTGTTATA | 0.12
GGTGCCACGTGGGTAC | -0.12
GAATTCACGTGGGCTA | 0.37
TCTTTCACGTGATTTG | 0.24
GTTGTCACGTGTGACA | 0.03
TGTCGCACGTGTGAAT | 0.03
TATAGCACGTGGGAGT | -0.25
AGTTGCACGTGTAATG | -0.02
AGTTGCACGTGAGAAT | 0.24
TTTGTCACGTGAAGAT | 0.42
TGATTCACGTGATACT | 0.25
TGATGCACGTGTAATG | 0.05
GGGCGCACGTGGGGGA | -0.24
TCGTGCACGTGATGGG | 0.23
TAGATCACGTGTGTAT | 0.06
GCATGCACGTGAGTTG | 0.15
GCTTCCACGTGTTTGT | 0.23
TTGGTCACGTGGAGAA | 0.13
ATGGTCACGTGTTCGG | 0.07
CCTGTCACGTGTGTGA | 0.06
TAGTGCACGTGGTTGA | -0.06
CGATGCACGTGAGGGT | 0.22

Sequence | relative binding free energy [kcal/mol]
TATATCACGTGTGGGC | 0.21
TTTACCACGTGGTAGG | -0.02
TGCGGCACGTGTTGGG | -0.09
AGGAACACGTGATTTG | 0.18
GTAGTCACGTGAAAAG | 0.45
CTGGGCACGTGGTCCG | -0.18
CTGATCACGTGTAGTG | 0.13
GGGTTCACGTGATACG | 0.37
GTGGCCACGTGGCGTT | -0.08
GGTTGCACGTGTACAT | 0.11
AGAGCCACGTGCGGGG | 0.06
GATCTCACGTGAAGGT | 0.55
AAGATCACGTGGTATA | 0.22
TACTCCACGTGGTGTT | 0.02
GGTTCCACGTGATAGG | 0.13
AGCGTCACGTGGTGGT | 0.03
ATGGGCACGTGCTGCG | -0.19
GTGCTCACGTGGGTAG | 0.16
GTTAGCACGTGTTGGT | 0.1
GTATCCACGTGGGTTT | -0.11
AAAGTCACGTGTGTTT | 0.25
TTGGGCACGTGGGAAT | -0.22
GGAGCCACGTGGTTGT | -0.08
ATGTCCACGTGTGAGG | -0.03
TTTGGCACGTGTGACA | -0.01

Sequence | relative binding free energy [kcal/mol]
TCTTTCACGTGCATGT | 0.31
CAGGGCACGTGCGAGG | -0.15
ATAGGCACGTGGGCTA | -0.33
ATGTACACGTGAATGA | 0.34
CGGAGCACGTGCAGGG | -0.08
CGCGTCACGTGGGTAT | -0.1
TGCGGCACGTGGTCTG | -0.23
TGCAGCACGTGTGATT | 0.05
TGTTACACGTGTCTGG | 0.16
GAGTTCACGTGTTTAT | 0.28
TGCGGCACGTGTGGAT | -0.05
AGGTGCACGTGTAGGA | -0.08
GTTACCACGTGTGGTG | 0.03
ATCGGCACGTGGTTCT | -0.09
ATTGGCACGTGTATAA | -0.13
TTTTCCACGTGTAGTT | 0.11
GTAGACACGTGAGGAT | 0.38
TTCTTCACGTGGGAGA | 0.31
TGGTGCACGTGGTAGT | -0.05
GGTATCACGTGGAGGC | 0.1
TCGTGCACGTGAGGTA | 0.17
ATCGTCACGTGATTGT | 0.16
ACAGTCACGTGATGGG | 0.04
TAGGCCACGTGGGGTC | -0.17
TGTGCCACGTGTGAAG | 0.03

Sequence | relative binding free energy [kcal/mol]
AAGGACACGTGTAGGT | 0.08
TTGAACACGTGGTTTA | 0.04
GTGATCACGTGGTTTT | 0.16
GAGGACACGTGTGATG | 0.16
GTTATCACGTGATTAG | 0.37
TGTGTCACGTGGCCAG | -0.12
CTAGTCACGTGTTTTA | 0.17
ATAATCACGTGTTGTT | 0.04
GGGTTCACGTGGTTCT | 0.33
AGCGGCACGTGTAAGG | -0.18
GTGAGCACGTGGGCGG | -0.14
TTTTGCACGTGCGGCA | 0.01
GATTTCACGTGGCGGG | 0.3
AATAGCACGTGGGCTG | -0.27
AGCTTCACGTGGTTGC | 0.15
TGTGGCACGTGGGCCG | -0.31
GGTGTCACGTGTGTTC | 0.11
ATAAACACGTGTGGTG | 0
CAATTCACGTGGTAGT | 0.23
AGTTGCACGTGGGTCA | -0.15
TAATGCACGTGATTTT | 0.03
CGGATCACGTGGCGGA | 0.37
TTGTTCACGTGTTGGA | 0.23
ATTGACACGTGAAGGA | 0.22
TCTGTCACGTGGTAGA | 0.01

Sequence | relative binding free energy [kcal/mol]
CTCGACACGTGGGGGG | -0.13
TGGCGCACGTGTAGGC | 0.05
GAATTCACGTGAGAGG | 0.42
TTTTTCACGTGGTACA | 0.15
ATGCGCACGTGCTTGG | -0.22
TATTACACGTGAAATG | 0.43
GGGGACACGTGCGTGA | -0.07
GTCTGCACGTGTATTT | 0
ATGTGCACGTGGATGG | -0.03
TATTGCACGTGTATGT | -0.03
TGGTGCACGTGTACGA | -0.02
GGTTTCACGTGAATGC | 0.5
TTTTACACGTGCATGG | 0.1
GGTATCACGTGGTAAG | 0.37
ATCTTCACGTGTGGCA | 0.24
AGTGGCACGTGATTTC | 0.14
TGTTGCACGTGTTTGT | 0.01
TCATGCACGTGTGGTG | 0.02
GAGGACACGTGTACGG | 0.17
GTTAACACGTGGATGG | 0.14
GGAGTCACGTGAACTT | 0.38
AGGCACACGTGTTAGG | 0.04
GCAGTCACGTGGCGTT | 0.12
TTAATCACGTGATATT | 0.28
GTTCTCACGTGAATGG | 0.35

Sequence | relative binding free energy [kcal/mol]
TGATACACGTGGAGGA | 0.07
TATTGCACGTGGTAAT | -0.05
TTGATCACGTGTGCCT | 0.06
TAGGGCACGTGTTATC | -0.12
CTGCGCACGTGGGGAG | -0.27
GTGTACACGTGCGATG | -0.04
TCTGACACGTGGTGTT | -0.07
TTTTACACGTGTTTAC | 0.22
TTATTCACGTGTAAAT | 0.29
TGGAGCACGTGCGAGT | 0.02
CTTGACACGTGTGGAG | -0.02
AGATACACGTGGTGTA | -0.04
TTCGGCACGTGCGTGA | -0.1
AGGAACACGTGTTGAT | 0.07
CGTGCCACGTGGGGGC | -0.22
TCGAGCACGTGGATGG | -0.13
CGAAACACGTGGTGTG | -0.12
AGTGTCACGTGAATTG | 0.2
TTTCTCACGTGGAGTA | 0.2
TTGGACACGTGTGGGG | 0.19
CGAGTCACGTGTGGGA | 0.2
